# Among all 310,000 compounds or so, about 14,000 (4.5%) showed an effect of 50% or more. The effect is printed as a negative number. The list shows a part of the results.
# Molecular target: human ether-à-go-go-related gene (hERG) potassium channel (human, UniProt Q12809)
# Experiment: primary screen, population patch clamp on CHO cells stably expressing hERG
# 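Note: peak tail current of the secondary pulse compared with the same well before compound.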
# human ether-à-go-go-related gene (hERG) potassium channel, sequence (Q12809 whole entry, looked up): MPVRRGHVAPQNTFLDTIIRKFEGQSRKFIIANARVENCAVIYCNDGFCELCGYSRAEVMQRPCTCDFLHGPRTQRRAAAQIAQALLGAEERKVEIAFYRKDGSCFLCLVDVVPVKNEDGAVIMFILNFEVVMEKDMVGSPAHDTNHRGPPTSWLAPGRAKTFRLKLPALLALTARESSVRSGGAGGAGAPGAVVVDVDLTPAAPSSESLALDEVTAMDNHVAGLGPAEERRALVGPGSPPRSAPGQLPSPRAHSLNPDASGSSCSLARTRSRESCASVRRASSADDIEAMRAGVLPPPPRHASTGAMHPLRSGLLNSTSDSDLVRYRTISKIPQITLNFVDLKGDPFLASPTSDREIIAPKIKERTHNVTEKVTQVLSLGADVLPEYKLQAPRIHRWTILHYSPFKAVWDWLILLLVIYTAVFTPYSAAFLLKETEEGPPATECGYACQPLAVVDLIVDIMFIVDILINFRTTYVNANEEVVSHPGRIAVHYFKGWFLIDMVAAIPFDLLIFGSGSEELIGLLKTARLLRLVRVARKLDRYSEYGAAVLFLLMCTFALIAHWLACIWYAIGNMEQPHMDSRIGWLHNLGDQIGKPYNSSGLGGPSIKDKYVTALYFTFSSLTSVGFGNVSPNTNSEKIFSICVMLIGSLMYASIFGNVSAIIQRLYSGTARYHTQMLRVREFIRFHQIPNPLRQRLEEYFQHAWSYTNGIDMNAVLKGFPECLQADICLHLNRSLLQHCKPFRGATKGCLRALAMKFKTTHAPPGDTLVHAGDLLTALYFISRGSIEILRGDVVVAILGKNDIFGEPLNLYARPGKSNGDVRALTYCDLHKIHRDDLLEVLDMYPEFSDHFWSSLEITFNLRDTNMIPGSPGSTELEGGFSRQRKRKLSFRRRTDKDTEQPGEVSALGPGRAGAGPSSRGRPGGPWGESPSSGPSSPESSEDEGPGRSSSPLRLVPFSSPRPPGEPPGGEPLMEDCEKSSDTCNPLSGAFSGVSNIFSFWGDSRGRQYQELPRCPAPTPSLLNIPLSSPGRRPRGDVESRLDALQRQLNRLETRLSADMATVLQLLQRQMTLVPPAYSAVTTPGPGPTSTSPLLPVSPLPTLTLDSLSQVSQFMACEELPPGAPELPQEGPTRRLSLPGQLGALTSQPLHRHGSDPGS
row,Structure (SMILES),"hERG current change (%, negative = inhibition) at 10uM"
1,N#C/C(=C\c1ccc(Cl)cc1)c1n[nH]c(Cn2cncn2)n1,-0.154%
2,O=C(CSc1ncccc1C(=O)O)NC1CCCCCCC1,2.52%
3,CCN1CCN(c2ccc(S(=O)(=O)N3CCCCC3)cc2NC(=O)c2cccc(NC(C)=O)c2)CC1,-71.3%
4,COc1cc(C(=O)NCC(c2cccs2)N(C)C)cc(Cl)c1OC(C)C (stereo not drawn),-11%
5,O=C(O)c1ccc2c(c1)C(=O)N(c1ccc(OCc3ccccc3)cc1)C2=O,23.3%
6,CS(=O)(=O)c1ccc2nc(NC(=O)Nc3ccccc3F)sc2c1,25%
7,CC(C)OC(=O)c1nn2c(C(F)(F)F)cc(-c3ccc(Br)o3)nc2c1Br,4.77%
8,Cc1ccc2c(c1)N(C(=O)CCC(=O)NC1CCC(C)CC1)CCO2 (stereo not drawn),-16%
9,O=C(NNS(=O)(=O)c1ccccc1)C1CCN(S(=O)(=O)c2ccc(Cl)cc2)CC1,-45.9%
10,COc1cnc(-c2ccccn2)[nH]c1=O,23.7%
11,CC1CCCCN1CC(=O)Nc1ccc(N2CCCCCC2)cc1.O=C(O)C(=O)O (stereo not drawn),-13.2%
12,NC(=O)CSc1nc2ccc([N+](=O)[O-])cc2[nH]1,22.5%
13,O=C(c1ccco1)N1CCN=C1SCc1ccccc1F,1.09%
14,CCC(=O)N1c2ccc(S(=O)(=O)N3CCN(c4cc(C)ccc4C)CC3)cc2CC1C (stereo not drawn),13.3%
15,COc1ccc(OC)c(CCNC(=O)C2CCN(c3nnc(-n4cccc4)s3)CC2)c1,-34.1%
16,O=[N+]([O-])c1ccc(N2CCN(S(=O)(=O)c3ccccc3)CC2)cc1NCc1ccco1,17.4%
17,COc1ccc(CN2CCc3ccccc3C2)c(OC)c1OC,-13.4%
18,CCOc1ccccc1Nc1nc(-c2sc(NC(=O)c3cccc(Cl)c3)nc2C)cs1,-7.47%
19,CC1(C)CC(=O)C2=C(C1)Nc1ccccc1NC2c1ccc(F)c(F)c1 (stereo not drawn),-3.14%
20,Cc1c(NS(C)(=O)=O)c(=O)n(-c2ccccc2)n1C,2.77%
21,COC(=O)N/N=C/c1cc(N=Nc2ccccc2)ccc1O,0.767%

row,Structure (SMILES),"hERG current change (%, negative = inhibition) at 10uM"
1,CCOc1ccc(S(=O)(=O)NCCN2CCOCC2)c2ccccc12,-11.2%
2,COc1ccc(C(=O)N2CCN(c3ccc([N+](=O)[O-])c(NCCc4ccc(OC)c(OC)c4)c3)CC2)cc1,4.2%
3,CSc1ncc(C(=O)Nc2ccc(Br)cn2)c(C)n1,-7.65%
4,CC1=C(C(=O)OCc2ccccc2)C(c2cccc(Br)c2)NC(=O)N1 (stereo not drawn),17.3%
5,C[n+]1ccccc1/C=C/c1ccc([N+](=O)[O-])cc1.[I-],-2.7%
6,CCO[C@H]1OC(C(=O)NCc2nc3ccccc3[nH]2)=C[C@@H](c2ccccc2)[C@@H]1CCCO,-9.74%
7,CCOc1ccc(Cn2c(=O)sc3ccccc32)cc1OC,-12.7%
8,COc1ccc(CNC(=O)CN2C(=O)CSc3ccc(S(=O)(=O)N4CCOCC4)cc32)cc1,-37.9%
9,CC(C)c1ccc(CNc2cc(N3CCCC3)ccc2[N+](=O)[O-])cc1,13.8%
10,CS(=O)(=O)N1CCN(c2ccc([N+](=O)[O-])cc2F)CC1,-12.7%
11,CC(=O)Nc1cccc(C(=O)OCN2C(=O)c3ccccc3C2=O)c1,4.69%
12,N#CC1=C(N)Oc2n[nH]c(-c3cccs3)c2C1c1cccs1 (stereo not drawn),4.91%
13,CCOc1ccc2[nH]c3c(=O)n(CCC4=CCCCC4)cnc3c2c1,4.95%
14,O=C(c1ccco1)N1CCCC(N2CCN(c3ccccc3F)CC2)C1 (stereo not drawn),-21.1%
15,O=C1c2ccccc2C(=O)c2c(Nc3ccc(CCO)cc3)ccc(O)c21,18%
16,O=C(c1ccoc1)N1CCCC(N2CCN(c3cccc(Cl)c3)CC2)C1 (stereo not drawn),-41.3%
17,CCn1cc(C(=O)NC2CCCCCC2)c2cc(OC)c(OC)cc2c1=O,-3.41%
18,CCn1c(C)nnc1SCC(=O)Nc1ccc(N2CCOCC2)cc1,-6.43%
19,Cc1cc(C=C2C(=O)c3ccccc3C2=O)c(C)n1-c1ccccc1,7.13%
20,CN1CCCN(C(=O)CNC(=O)Cc2ccccc2)CC1,6.11%
21,N#Cc1c(N)nc2c(c1-c1ccncc1)CCCC2,-26.5%

# — article PMC4336329 (PLoS ONE, 2015)
